Hit rate of the full screen: of about 360,000 compounds, about 17,000 (4.7%) were called active. This list was built around the results that the source calls inconclusive (neither active nor inactive); the mix of calls is not that of the screen. Cut-off read from the data, not from the text of the source: active = activity change below about -50%; inconclusive = mostly about -30% to -49%; inactive = weaker than that.
Experiment: qHTS for Inhibitors of Inflammasome Signaling: IL-1-beta AlphaLISA Primary Screen
Conditions: THP-1 LPS/ATP IL-1B secretion, 16 h; at 57.5 µM, active compounds read low
Outline: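 Secreted IL-1B measured by AlphaLISA bead assay after 16 h compound exposure of THP-1 cells; compounds (final up to 57.5 uM) added 1 h before LPS (250 ng/mL) and ATP (1.25 mM) stimulation; lower signal means less secretion.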
% is set by controls: 0 for no effect and ±100 for the full control effect.

SMILES | activity change
CC(=O)N1CCN(C(=O)C(Cc2ccccc2)NC(=O)c2ccccc2)CC1 (stereo not drawn) | inactive: 1.65%
Cc1cc(-c2nnc3sc(-c4ccc(Cl)cc4Cl)nn23)n[nH]1 | inconclusive: -37.6%
NS(=O)(=O)c1ccc(CCNc2nc(CN3CCCCC3)nc3sc4c(c23)CCC4)cc1 | inconclusive: -38.4%
CC(C)C[C@H]1CN([C@@H](Cc2ccc(O)cc2)CN2CCC[C@H]2CN2C(=O)C(=O)NC[C@@H]2Cc2ccccc2)C(=O)C(=O)N1CC1CCCCC1 | inconclusive: -48.9%
Cc1ccc(C)c(OCCn2cc(/C=C(\C#N)C(=O)NCC3CCCO3)c3ccccc32)c1 (stereo not drawn) | inconclusive: -34.1%
COc1ccc(C)cc1NC(=O)C(OC(=O)c1ccc([N+](=O)[O-])o1)c1ccccc1 (stereo not drawn) | inactive: -6.07%
COc1ccc(C(=O)Cn2c(Br)nc3c2c(=O)n(C)c(=O)n3C)cc1 | inactive: 0.621%
COc1ccc(NC(=O)N2CCCC(c3ccccc3)C2)cc1 (stereo not drawn) | inconclusive: -31.5%
Cn1c2ccccc2c2ccc3c(c21)C(=O)C=CC3=O | inconclusive: -45.2%
CN(CC(=O)Nc1ccc(OC(F)(F)F)cc1)C1CCCCC1 | inconclusive: -44.7%
CCOC(=O)C1=C(C)NC(C)=C(C(=O)OCC)C1C(=O)OCC(=O)NC(C)c1ccccc1 (stereo not drawn) | inconclusive: -36.6%
CCOC(=O)N1CCN(CC(=O)Nc2sc(CC)cc2C(=O)c2ccc(OC)cc2)CC1 | inconclusive: -32%
CC(=O)c1ccc(CCCCc2ccc(C(C)=O)cc2)cc1 | inactive: 25.1%
COc1cc(C(=O)OCC(=O)c2cc(C)n(C)c2C)cc(NC(=O)c2ccco2)c1OC | inconclusive: -33.4%
CCCCCCn1nc(C(=O)OCC(=O)c2c(N)n(C)c(=O)n(C)c2=O)c2ccccc2c1=O | inconclusive: -44.5%
COc1ccc(-n2c(N)c(C(=O)NCC3CCCO3)c3nc4ccccc4nc32)c(OC)c1 (stereo not drawn) | inconclusive: -36.9%
Cc1noc(C)c1COc1ccc(C(=O)N2CCCC(C(N)=O)C2)cc1 (stereo not drawn) | inconclusive: -34.6%
COc1cc(OC)c(C(=O)Nc2cccc(C(C)=O)c2)cc1OC | inconclusive: -31.3%
CCCCCn1c2c(c(=N)c3ccccc31)CCC2 | inconclusive: -34.7%
O=C(COc1ccc(Cl)cc1)NCCN1CCCC1 | inactive: 0%
CSc1cccc(NC(=O)CSc2ccc(Cl)cc2)c1 | inconclusive: -30.8%
Cc1cccc(C)c1NC(=O)C(NC=O)c1ccccc1Cl (stereo not drawn) | inconclusive: -30.7%

SMILES | activity change
Cn1c(=O)c2cc(S(=O)(=O)NCCC(=O)Nc3ccc(F)cc3F)ccc2n(C)c1=O | inconclusive: -36.9%
COc1ccc2nc(C)cc(NCCN3CCOCC3)c2c1 | inconclusive: -48.6%
Cn1c(=O)[nH]c(=O)c2c1nc(CN1CCN(c3cccc(Cl)c3)CC1)n2CCCc1ccccc1 | inactive: -12.8%
COc1ccc(OCC(=O)Nc2ccccc2C(=O)N2CCCC2)cc1 | inactive: -6.41%
CCc1nc2ccc(C(=O)NCCc3ccco3)cc2nc1CC | inconclusive: -39.8%
Cc1ccc(C)c(C(O)c2ncc(-c3ccc(C(F)(F)F)cc3)[nH]2)c1 (stereo not drawn) | inactive: -16.5%
O=C1c2ccccc2C(=O)N1CCSc1nc2ccccc2c(=O)n1CCCN1CCOCC1 | inconclusive: -39%
CCOC(=O)c1ccc2c(c1)N(CC(=O)N1CCCC1)C(=O)C(C)(C)O2 | inconclusive: -30.2%
CC(C)(C)[C@H]1C=C(C(=O)Nc2ccccc2)O[C@@H](OCc2ccc(CO)cc2)C1 | inconclusive: -32.7%
Cc1ccc(NC(=O)CSc2nnc(CSc3nc(C)cc(C)n3)n2Cc2ccco2)c(C)c1 | inconclusive: -37.3%
CC(C)N(C(=S)Nc1cccc(C(F)(F)F)c1)C(C)c1ccccn1 (stereo not drawn) | active: -91.4%
COc1ccc([C@H]2CC(=O)C=C(/C=C/c3ccc(C(F)(F)F)cc3)C2)cc1 | inconclusive: -46.3%
CCOC(=O)C1CCN(C(=O)C2CC(=O)N(c3ccc4c(c3)OCCO4)C2)CC1 (stereo not drawn) | inactive: 2.86%
N=c1c2c(-c3ccccc3)c(-c3ccccc3)oc2ncn1CCCN1CCOCC1 | inconclusive: -43.3%
CCn1c(SCC(=O)Nc2ccc(NC(=O)c3cccs3)cc2)nnc1-c1cccnc1 | inconclusive: -36.6%
COc1ccc2c(c1)cc1n2CCN=C1N | inconclusive: -49.8%
CC1(C)CC(=O)C=C(c2n[nH]nc2C2CCCCC2)C1 | inactive: -4.4%
COc1ccccc1CNS(=O)(=O)CCNCc1ccco1 | inactive: -4.83%
CC(C)(O)C#Cc1ccc(CN2CCN(C3CCCC3)C(CCO)C2)cc1 (stereo not drawn) | inconclusive: -30.5%
O=S(=O)(Nc1cccc(-c2ccc3nncn3n2)c1)c1cccc(F)c1 | inactive: 10.3%
O=c1c2cc(Cl)ccc2[nH]c(=S)n1Cc1ccco1 | inactive: 39.7%

From PubChem BioAssay AID743279 (National Center for Advancing Translational Sciences (NCATS), 2014)
